# Measurements from PubChem BioAssay AID588453 (National Center for Advancing Translational Sciences (NCATS), 2011).
# In all, about 390,000 compounds went through this assay and about 4,000 (1%) were called active. Inconclusive means that the source gave no clear call. Such entries were picked first, then a sample of the others. Calls follow the shape of the dose curve; as a rule, active = well fitted inhibition curve with a large enough effect; inconclusive = small, poorly fitted or top-dose-only effect; inactive = no such curve, though single readings can be large or run the other way. Potencies of inconclusive entries are doubtful fits and often do not repeat.
# Target: Thioredoxin reductase 1, cytoplasmic (Rattus norvegicus) (UniProt O89049)
# Assay: qHTS Assay for Inhibitors of Mammalian Selenoprotein Thioredoxin Reductase 1 (TrxR1): qHTS; also: nearly all actives have a fitted effect of over 65% in size
# Settings: recombinant rTrxR1, NADPH fluorescence consumption, selenite substrate; series mostly up to 114 µM; activity change, negative = inhibition: at the top concentration
# Procedure, shortened: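 Rat TrxR1 (90 nM in the dispensed reagent) was pre-reduced with 400 uM NADPH for 5 min at room temperature, then incubated with compound for 15 min. After 400 uM selenite was added, NADPH fluorescence (Ex 340/Em 450 nm) was followed for 8 min.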
# % is scaled to controls: 0 for no effect and ±100 for the full control effect; potency is read from the fitted curve at half-maximal effect; tags tell the direction and shape of the fitted curve.
# UniProt O89049, sequence (O89049 whole entry, looked up): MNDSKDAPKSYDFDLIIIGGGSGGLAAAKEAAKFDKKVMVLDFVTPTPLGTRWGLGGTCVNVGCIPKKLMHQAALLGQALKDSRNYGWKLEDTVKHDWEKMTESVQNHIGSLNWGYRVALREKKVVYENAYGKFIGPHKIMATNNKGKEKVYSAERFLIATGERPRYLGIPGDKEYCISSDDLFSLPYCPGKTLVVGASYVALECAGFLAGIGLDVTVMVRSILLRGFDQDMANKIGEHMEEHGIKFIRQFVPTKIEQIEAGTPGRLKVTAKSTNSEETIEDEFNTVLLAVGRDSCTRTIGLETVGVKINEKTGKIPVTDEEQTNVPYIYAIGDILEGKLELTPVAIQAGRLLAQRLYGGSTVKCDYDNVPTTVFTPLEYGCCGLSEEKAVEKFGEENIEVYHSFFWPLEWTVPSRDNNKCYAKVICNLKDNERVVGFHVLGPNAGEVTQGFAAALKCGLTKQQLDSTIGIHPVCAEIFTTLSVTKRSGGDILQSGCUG
Structure (SMILES),Potency,"activity change, negative = inhibition"
CCCCn1c(N)c(N(CCOC)C(=O)c2cc(-c3ccco3)nc3ccccc23)c(=O)[nH]c1=O,active: 50.1 µM,
C=CCn1c(CNC(=O)c2ccco2)nnc1SCC(=O)N1c2ccccc2Sc2ccccc21,"inconclusive: 25.1 µM [inhibitor, single point]",
COc1cc(C)c(Br)cc1S(=O)(=O)NCc1cccs1,,inactive: -19.1%
COc1ccc(CNC(=O)Cn2cccc2C(=O)c2ccccc2)cc1,,inactive: 7.31%
Cc1ccc(N(Cc2cc3ccc(C)cc3[nH]c2=O)C(=O)c2ccco2)c(C)c1,"inconclusive: 56.2 µM [inhibitor, partial curve, poor fit]",
O=C(CCN1C(=O)COc2ccccc21)NCc1ccco1,"inconclusive: 70.8 µM [inhibitor, partial curve]",
O=C(O)Cc1nc(-c2cccnc2)sc1-c1ccc(Br)cc1,"inconclusive: 25.1 µM [inhibitor, full curve]",
C=CCOc1ccc(CNc2ccc(NC(=O)CCC)cc2)cc1OCC,,inactive: 7.16%
O=C(O)c1ccc2c3c(cccc13)C(=O)N(c1ccccc1)C2=O,"inconclusive: 79.4 µM [inhibitor, partial curve, poor fit]",
C=C(C)[C@@H]1C2=CC(C(=O)OC)=C(C[C@@H](C(=C)C)[C@H]3O[C@H]3C3=C[C@H]1OC3=O)O2,active: 11.2 µM,
CSc1nc(-c2ccco2)nn1C(=O)c1ccccc1,active: 20 µM,
C=CCNC1=C(Cl)C(=O)c2ccccc2C1=O,"inconclusive: 17.8 µM [inhibitor, partial curve]",
COc1ccc(/C=C2/SC(c3ccc(C)cc3)=NC2=O)cc1OC,"inconclusive: 56.2 µM [inhibitor, single point]",
COc1ccc(C)cc1NC(=O)CSc1nc(=O)n(Cc2ccco2)c2c1CCC2,"inconclusive: 22.4 µM [inhibitor, single point]",
CCCC1c2ccc(C)n2CCN1C(=O)Nc1ccccc1Cl (centres undefined),"inconclusive: 39.8 µM [inhibitor, partial curve, poor fit]",
CNc1oc(-c2ccccc2)nc1C#N,"inconclusive: 70.8 µM [inhibitor, single point]",
C[C@H]1C[C@H]2[C@@H]3CCC4=CC(=O)C=C[C@]4(C)[C@@]3(F)[C@@H](O)C[C@]2(C)[C@@]1(O)C(=O)CO,,inactive: 11.6%
Cc1ccc(S(=O)(=O)Nn2c(O)c(C=C3N=c4ccccc4=N3)sc2=S)cc1,"inconclusive: 56.2 µM [inhibitor, partial curve, poor fit]",
COC(=O)c1c(NC(=O)CCl)sc(C(=O)N2CCOCC2)c1C,"inconclusive: 39.8 µM [inhibitor, partial curve]",
